{"source": "the supplement of paper PMC11417369", "note": "The other results are listed elsewhere or left out."}
{"tested_on": "PF3D7_0420300 AP2 domain 1 (GST-tagged)", "test": "gcPBM binding intensity (ln(normalized median fluorescence intensity)); higher = stronger DNA binding", "how_it_was_run": "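For binding intensity, the highest Masliner-normalised natural-log median intensity across replicate spots of either probe orientation was taken. Protein bound to the array was stained with Alexa488 anti-GST antibody and scanned at 488 nm. The protein, GST-tagged P. falciparum DNA-binding domains from E. coli at about 25 μg on average, had been applied for 1 h to an Agilent 4 × 180k array of primer-extended double-stranded 36-bp intergenic genomic probes and negative controls.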"}
{"sequence": "GATTTATTTCATATCACACATTTTGGCTATTTTGTG [CACACA_site5793]", "gcPBM binding intensity (ln)": 9.59}
{"sequence": "AAAAACGAAAAAAATACACACCTGAAAAGATATGTA [CACACA_site4644]", "gcPBM binding intensity (ln)": 9.63}
{"sequence": "GTATATATGTATATGTGTACATATATTTTATAATAT [XGTACX_site5703]", "gcPBM binding intensity (ln)": 9.2}
{"sequence": "TGGAAAGTTATTAACACACACATATAAATATTTATA [CACACA_site6173]", "gcPBM binding intensity (ln)": 9.64}
{"sequence": "AGATCATAATATTATACACACATTATATATATGTAA [CACACA_site8419]", "gcPBM binding intensity (ln)": 9.42}
{"sequence": "TATATATAATATTATACACACATATCTGCATAATAT [CACACA_site4202]", "gcPBM binding intensity (ln)": 9.51}
{"sequence": "GGAATAACCAGACACACACACACATATATATATATA [CACACA_site3541]", "gcPBM binding intensity (ln)": 10.1}
{"sequence": "AAAAACCATTCGCACACACACATAATCTATAATATA [CACACA_site6782]", "gcPBM binding intensity (ln)": 10}
{"sequence": "AAGTACCATATAGGCACACATATATATATATATATA [CACACA_site3282]", "gcPBM binding intensity (ln)": 9.22}
{"sequence": "AATACATTGTCAAATTGTACAAATTATAGAACTATT [XGTACX_site2222]", "gcPBM binding intensity (ln)": 9.19}
{"sequence": "TGTTTTTATATATATGCACACAATGTACAAGTATAC [CACACA_site3529]", "gcPBM binding intensity (ln)": 9.46}
{"sequence": "CCATAAAAAGGATACACACACACACCCACATATATA [CACACA_site903]", "gcPBM binding intensity (ln)": 10.2}
{"sequence": "TTATATATAAACATAAAAAGAAATATATTATGTATA [CACACA_negctrl_site667]", "gcPBM binding intensity (ln)": 9.08}
{"sequence": "TATGTGAATATAATCACACACAATACGGAAACCCAC [CACACA_site2725]", "gcPBM binding intensity (ln)": 9.77}
{"sequence": "AAAGTCTCATTAAAATGTACAAAATTTTCAGCTGTA [XGTACX_site6296]", "gcPBM binding intensity (ln)": 8.9}
{"sequence": "TAATTTTTAATTGTAGCATGCAGTATTTTTAAATAT [TGCATGCA_site140]", "gcPBM binding intensity (ln)": 8.97}
{"sequence": "ATTATCCATGCATTTACACACACACCCAAAAAAATT [CACACA_site4101]", "gcPBM binding intensity (ln)": 9.99}
{"sequence": "AAAGGGGCATATATATGTACATATTATATATTTTGA [XGTACX_site2436]", "gcPBM binding intensity (ln)": 9.18}
{"sequence": "ATTGTCTTCTCATATACACACTTTTATGACTATCTT [CACACA_site5696]", "gcPBM binding intensity (ln)": 9.64}
{"sequence": "TGTGTAATTATATATAAGGAGAAAGAATTCATTTTT [CACACA_negctrl_site670]", "gcPBM binding intensity (ln)": 9.12}
{"sequence": "ACAAAAAATAATCAAAATGTATATATATAATATAAT [XGTACX_negctrl_site593]", "gcPBM binding intensity (ln)": 9.27}
{"sequence": "TATTGAAGTTATAAAGTGCAGATAAATATGAGTTAT [GTGCAC_site9945]", "gcPBM binding intensity (ln)": 9.52}
{"sequence": "AAATGCCATATAATTTTTCTTAAACATAATTGTATA [CACACA_negctrl_site1665]", "gcPBM binding intensity (ln)": 9.07}
{"sequence": "ATATTTAATGTTAATTGTACATATTATATATATATA [XGTACX_site6095]", "gcPBM binding intensity (ln)": 9.23}
{"sequence": "ATAATATTATTATAATGTACATATTTCGATATAAAT [XGTACX_site8808]", "gcPBM binding intensity (ln)": 9.13}
{"sequence": "GATTATACAAAATATACACACGTGTAGACAAATATT [CACACA_site4785]", "gcPBM binding intensity (ln)": 9.71}
{"sequence": "ATATATATTAATAGGTGTACATATAAAGTGTTATGT [XGTACX_site5464]", "gcPBM binding intensity (ln)": 9.51}
{"sequence": "AAAAAAATATATATTACACACATATATACCTATATA [CACACA_site5688]", "gcPBM binding intensity (ln)": 9.56}
{"sequence": "AAAAAAAAATTTTTAAAATTTAGAAAATTTAAAAAA [GTGCAC_negctrl_site649]", "gcPBM binding intensity (ln)": 8.63}
{"sequence": "TAATAATGCAACCTCTGTACACAACATTATATCCAT [XGTACX_site7596]", "gcPBM binding intensity (ln)": 9.41}
{"sequence": "TATATATAAGCGTGTACACATTCTGAGTGTTGTATA [CACACA_site4502]", "gcPBM binding intensity (ln)": 9.34}
{"sequence": "ATTATTTTTTTATGTTGTACATAATATTTTTTAAAA [XGTACX_site1666]", "gcPBM binding intensity (ln)": 9.06}
{"sequence": "ATATATATGGATGGACGTACGTATGTATGTAATTTC [XGTACX_site4135]", "gcPBM binding intensity (ln)": 9.44}
{"sequence": "TAATATTTATAAAATAGTACACAGAAAAAGCATTTT [XGTACX_site8948]", "gcPBM binding intensity (ln)": 9.23}
{"sequence": "TTCCAACATTGTTTTTGTACATAATTAACTGTTATT [XGTACX_site5224]", "gcPBM binding intensity (ln)": 9.43}
{"sequence": "CTTAAAAATAACTGCACACAAAAATAAATACCTTAT [CACACA_site2793]", "gcPBM binding intensity (ln)": 9.55}
{"sequence": "GAAAAAATATATAAATGTACATATAATAATATCATA [XGTACX_site6788]", "gcPBM binding intensity (ln)": 9.3}
{"sequence": "ATATATATTTTATTATGTACATATAAATATTACACA [XGTACX_site4062]", "gcPBM binding intensity (ln)": 9.12}
{"sequence": "AACAAATAAACAAAATTGGAAAATAAAAATATCAAA [CACACA_negctrl_site1125]", "gcPBM binding intensity (ln)": 9.37}
{"sequence": "TCGTATATGGATTTTGCACACAATTTTAATTTAAAT [CACACA_site4635]", "gcPBM binding intensity (ln)": 9.5}
{"sequence": "ATGATTTGTCTGAAATGTACATATATATATATATAT [XGTACX_site5247]", "gcPBM binding intensity (ln)": 9.18}
{"sequence": "TTTTTTTTTTTTTTAATTAATTACCTTTGAATGTGT [CACACA_negctrl_site393]", "gcPBM binding intensity (ln)": 9}
{"sequence": "TAATAATTTTATAAAGTGCATAAAAATAAAAATTTT", "gcPBM binding intensity (ln)": 9.01}
{"sequence": "AAAAAAGAATAGCACACACACATATATAAATATAAA [CACACA_site4518]", "gcPBM binding intensity (ln)": 9.92}
